# Laboratory results reported in PubChem BioAssay AID1240 (Sanford-Burnham Center for Chemical Genomics, 2008).
# Screen size: about 50,000 compounds; about 800 (1.6%) showed an effect of 50% or more. This is one part of the list.
# Molecular target: Bcl-2-like protein 10 (Homo sapiens) (UniProt Q9HD36)
# Assay: TR3 peptide-Bcl-B binding displacers, biochemical primary FP assay, phenotype converters (AID 1240);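 also: 0% = Bcl-B with tracer peptide and DMSO and 100% = tracer peptide lacking Bcl-B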
# Settings: GST-Bcl-B / FITC-TR3 peptide fluorescence polarization; stronger effect = higher value; compound at 3.75 mg/L
# UniProt Q9HD36, sequence (Q9HD36 whole entry, looked up): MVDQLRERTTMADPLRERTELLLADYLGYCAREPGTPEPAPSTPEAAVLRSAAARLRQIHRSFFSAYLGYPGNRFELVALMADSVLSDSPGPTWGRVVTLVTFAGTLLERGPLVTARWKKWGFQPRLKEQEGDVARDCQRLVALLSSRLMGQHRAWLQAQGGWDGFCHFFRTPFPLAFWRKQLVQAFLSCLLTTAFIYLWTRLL
row,Structure (SMILES),displacement [%]
1,O=C(CSCc1ccccc1)Nc1ccc2c(c1)C(=O)N(c1ccccc1)C2=O,-17.4
2,CCC(=O)NC(Nc1ccc(F)c(Cl)c1)(C(F)(F)F)C(F)(F)F,43.4
3,COc1ccc(NC(=O)c2ccc(I)cc2)c(OC)c1,7.8
4,COc1ccc(CN2C(=O)NC(=O)/C(=C\C=C\c3ccccc3)C2=O)cc1,13.5
5,Cc1ccc(NC(=O)COc2ccc(Cl)cc2Cl)c([N+](=O)[O-])c1,14.5
6,Cc1ccc(/C(N)=N/OC(=O)c2ccc(F)cc2)cc1,4.9
7,COc1ccc2c(c1)C1C=CCC1C(C(=O)O)N2 (stereo unspecified),150
8,COCCCNC(=O)/C(=C\c1ccc(-c2ccc(Cl)cc2)o1)NC(=O)c1ccc(C)cc1,8.5
9,COc1cc(C(=O)N2CCN(C(=O)COc3ccc4ccccc4c3)CC2)cc(OC)c1OC,-20
10,COc1ccc(CCNC(=O)CC(=O)N/N=C/c2ccc(C(C)C)cc2)cc1OC,-7.4
11,O=C(c1ccccc1I)n1cccn1,-0.1
12,O=S(=O)(Nc1ccc(S(=O)(=O)N2CCOCC2)cc1)c1ccc(Br)cc1,-4.9
13,Cc1ccc(S(=O)(=O)N(C)CCCC(=O)Nc2ccc(F)cc2)cc1,18.4
14,O=C(CCCC(=O)OCC(F)(F)C(F)F)Nc1ccc(F)cc1F,7.8
15,O=C(/C=C/c1ccc2c(c1)OCO2)Nc1ccc2ccccc2c1,10
16,C=CCn1c2ccccc2n2cc(-c3ccc(Br)cc3)nc12,-25.3
17,Cc1ccc(NC(=O)CSc2nc3c(c(=O)n(C)c(=O)n3C)n2C)cc1C,9.6
18,Cc1cccnc1NC(=O)Nc1ccc(F)cc1,0.2
19,COc1cc(OC)cc(C(=O)Nc2ccc(-c3nc4ccccc4s3)c(O)c2)c1,-10.2

row,Structure (SMILES),displacement [%]
1,O=C(N/N=C/c1ccc(O)cc1)c1cccc(Cl)c1,-4.7
2,CC(C)Cn1cc(Cl)c(=O)n(CC(C)C)c1=O,-5
3,CS(=O)(=O)N(CC(N)=O)c1cccc(C(F)(F)F)c1,9.9
4,CCOC(=O)c1c(C)oc2cc(S(=O)(=O)O)c(O)cc12,7.5
5,CC(=O)/C(C(N)=NC(=O)c1ccccc1)=C(/O)c1ccccc1,13.2
6,CCOc1cc(/C=C(\C#N)c2nc3ccc(C)cc3[nH]2)cc(I)c1OC,-4.7
7,COc1ccc2c(c1)C1C=CCC1C(c1ccc([N+](=O)[O-])cc1)N2 (stereo unspecified),-0.8
8,Cc1ccoc1C(=O)Nc1ccc2ccccc2c1,7.1
9,C=CCN1C(=O)/C(=C\c2cn(Cc3ccccc3F)c3ccccc23)SC1=S,3
10,CC(=O)Oc1cc2ccccc2cc1O,3.9
11,O=C(Nc1cccc(F)c1)c1sc2ccccc2c1Cl,3.8
12,COc1ccc(CCNC(=O)/C(=C/c2ccc(Cl)cc2)NC(=O)c2ccc(C)cc2)cc1OC,16
13,C=CC[n+]1c(-c2ccc(OC)cc2)csc1Nc1cccc(C)c1C,3.3
14,CCOC(=O)c1ccc(NC(=O)c2ccc(S(=O)(=O)N(C)C)cc2)cc1,15.1
15,CC1=CC(C)C2COC(c3ccc[n+](C)c3)C1C2C (stereo unspecified),4.4
16,CCOC(=O)c1c(NC(=O)/C=C\C(=O)O)sc(C(=O)Nc2ccccc2)c1C,12.2
17,Cc1ccc(/C=N/N2CCN(Cc3ccccc3Cl)CC2)s1,11.2
18,Cc1ccc(C2Nc3ccccc3NC3=C2C(=O)CC(c2ccccc2)C3)cc1 (stereo unspecified),18.6
19,O=C1CSC(c2ccc(F)cc2)N1Cc1ccccc1 (stereo unspecified),-6.5

row,Structure (SMILES),displacement [%]
1,CS(=O)(=O)N(CC(=O)Nc1ccccc1Br)c1ccc(Cl)cc1,-8.3
2,COc1ccccc1CC(=O)Nc1ccc(Br)c(C)c1,11.6
3,CCOc1ccc(-c2nc(Cc3ccc(OC)cc3)no2)cc1,-3.4
4,COc1ccc(NC(=O)/C(=C\c2ccc(Br)cc2)NC(=O)c2ccccc2F)cc1,-10.9
5,c1ccc(NC2=Nc3cccc4cccc2c34)cc1,8.9
6,CCOc1cc(C(=O)Nc2ccncc2)cc(OCC)c1OCC,-0.2
7,N#Cc1c(Nc2ccccc2)ccnc1N1CCN(c2ccccc2)CC1,-9.8
8,O=C(NCCc1cccc(C(F)(F)F)c1)C(=O)Nc1ccccc1,-5
9,COC(=O)C1=C(O)/C(=C/c2ccc(O)cc2)N=C1C,11.7
10,CC(=O)C(C(C)=O)C1=C(Cl)C(=O)C(=O)c2ccccc21,2.1
11,COC(=O)C1=CNC=C(C(=O)OC)C1c1cc2c(cc1Cl)OCO2,4.7
12,CC1(C)CC(O)CC(C)(CN=Cc2c(O)n(-c3ccc(Cl)cc3)c(=O)[nH]c2=O)C1 (stereo unspecified),-31.5
13,C=CCN1C(=O)/C(=C\c2cc(Cl)ccc2OCc2ccccc2F)SC1=S,60.2
14,O=C(NNc1cccc(F)c1)C(O)(c1ccccc1)c1ccccc1,2
15,CCC(=O)N1c2ccccc2NC2=C(C(=O)CC(c3ccccc3)C2)C1c1ccc([N+](=O)[O-])cc1 (stereo unspecified),-7.4
16,O=C(O)CC/C(=N/NC(=O)c1c[nH]c2ccccc12)c1ccccc1,3.1
17,CC(/C=C1\SC(=S)N(c2ccc(F)cc2)C1=O)=C\c1ccccc1,-11.7
18,CC1=C(C#N)c2nc(N)c(C#N)c(C)c2/C1=C\c1ccc(Br)o1,2.7
